Results taken from patent US8492103B2 (priority 2011, dated 2013).

System: E. muris antibody
Details: for sensitivity in detecting Ehrlichia antibody compared to recombinant P28-19 protein: E. muris antibody
Method: To detect sensitivity of the P28 peptides (P28-1, P28-2, P28-3) or recombinant P28, peptides were coated on a NUNC Maxisorp plate (1:250), followed by incubation with E. muris serum. Finally, they were probed with goat anti-mouse AP (1:500) and results read on an ELISA reader after the addition of substrate.
Detection of anti-Ehrlichia antibodies using the Ehrlichia Hsp6043-63 and P28-1955-75 peptides. The inventors used ELISA to detect Ehrlichia antibodies in the sera of infected mice and dogs. Two hundred fifty nanograms of the peptides were coated on an ELISA plate (MaxiSorp, Nunc, Denmark) for 1 hour at room temperature. After washing, the plates were blocked with 5% FCS (in PBS-Tween) for 1 hour. The plates were further incubated with sera of infected mice or dogs for 1 hour at room temperature. Washing was followed by incubation with secondary antibody conjugated to alkaline phosphatase (AP) (Kirkegaard and Perry Laboratories, Gaithersburg, Md.) for 1 hour. After the addition of substrates (Blue Phos™ phosphatase substrate, Kirkegaard and Perry Laboratories, Gaithersburg, Md.), optical densities were measured using an ELISA plate reader (Molecular Devices, Sunnyvale, Calif.) at 650 nm after 30 min. incubation at room temperature. All assays were performed in triplicate wells, and the average values were calculated.

## akeeknataktfglkq (AKEEKNATAKTFGLKQ; listed as Ehrlichia muris) [P28-1955-75 peptide]
ELISA
  sensitivity in detecting Ehrlichia antibody compared to recombinant P28-19 protein: more sensitive
ELISA, listed as P28-19-1
  sensitivity in detecting Ehrlichia antibody compared to recombinant P28-19 protein: very sensitive
ELISA, listed as P28 peptide
  sensitivity in detecting Ehrlichia antibody compared to recombinant P28-19 protein: more sensitive
ELISA, sera of E. muris infected mice, day of infection
  early detection of Ehrlichia antibody: could detect Ehrlichia antibody even on day 7
Listed as peptide 1
  sensitivity in detecting Ehrlichia-specific antibody compared to the other P28-19 peptides: more sensitive
Peptide coated on plate, sera of mice infected with E. muris
  reaction with E. muris antibody (ELISA): reacted

Read-outs that look alike come from different tables or passages of the source.
